Laboratory results: PubChem BioAssay AID651597 (National Center for Advancing Translational Sciences (NCATS), 2012)
Among all 1,100 compounds or so, about 390 (35%) were called active. The inconclusive results got no clear call from the source; some entries with a clear call stand among them for comparison. Calls follow the shape of the dose curve; as a rule, active = well fitted inhibition curve with a large enough effect; inconclusive = small, poorly fitted or top-dose-only effect; inactive = flat fitted curve, though single readings scatter. A potency beside an inconclusive call is a rough fit, not a confirmed value.

molecular target: Luciferin 4-monooxygenase (Photinus pyralis) (UniProt P08659); assay: qHTS of Nrf2 Activators: Hit Validation in Secondary FLuc Assay; settings: firefly luciferase inhibition counter-screen, luminescence; series mostly up to 57.5 µM; activity, negative = inhibition: at the top concentration; also: nearly all actives have a fitted effect of over 65% in size
Method in brief: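 Counter-screen on purified firefly luciferase with ATP and D-luciferin at Km concentrations; compounds flagged if they inhibit the enzyme, indicating possible reporter stabilization rather than ARE activation.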
% is scaled to controls: 0 for no effect and ±100 for the full control effect; potency is read from the fitted curve at half-maximal effect; tags tell the direction and shape of the fitted curve.

Structure (SMILES) | Potency | activity, negative = inhibition
O=C1C(=Cc2cccc(Cl)c2)Cc2ccccc21 | active: 1.07 µM | 
COn1c(-c2ccccc2)nc2c1CCc1c-2no[n+]1[O-] |  | inactive: 0.412%
S=c1[nH]nc(-c2ccco2)n1/N=C/c1ccc(Br)s1 | inconclusive: 6.75 µM [inhibitor, partial curve] | 
O=c1[nH]c(O)c(/C=C2\C=Nc3ccccc32)[nH]1 | inconclusive: 21.3 µM [inhibitor, single point] | 
O=C(CCN1C(=O)c2cccc3cccc(c23)C1=O)Nc1ccon1 |  | inactive: -23.6%
O=C1N/C(=C\c2ccsc2)C(=O)N1Cc1ccc(F)cc1 |  | inactive: -2.1%
O=c1c2cc3c(=O)n(-c4ccccc4O)c(=O)c3cc2c(=O)n1-c1ccccc1O | inconclusive: 30.1 µM [inhibitor, single point] | 
Cn1c(CC2C(=O)Nc3ccc(Br)cc32)nc2ccccc2c1=O (configuration not stated) |  | inactive: -7.26%
c1ccc(N2CC3CCc4ccccc4C3=N2)cc1 (configuration not stated) | active: 3.01 µM | 
COC(=O)C(=C/C=C/c1ccco1)C(=O)OC | inconclusive: 23.9 µM [inhibitor, single point] | 
CCn1nc(C(=O)Nc2cccc3ccccc23)c(Cl)c1Cl | inconclusive: 37.9 µM [inhibitor, single point] | 
CCOc1ccsc1C(=O)NNC(=O)c1ccco1 |  | inactive: 4.68%
O=[N+]([O-])c1cccc2ccc(/C=C/c3ccc(F)cc3)nc12 | active: 2.39 µM | 
Nc1nonc1N/N=C/c1c(O)ccc2ccccc12 | inconclusive: 12 µM [inhibitor, partial curve, poor fit] | 
Cc1cc(NC(=O)c2ccccc2)nc2c1c(=O)oc1ccccc12 | inconclusive: 26.9 µM [inhibitor, single point] | 
Cc1nc(NCc2ccco2)nc2c1C(=O)CC(C)C2 (configuration not stated) |  | inactive: 3.45%
Nc1nc(Nc2cccc(Cl)c2)nc(NCCO)c1[N+](=O)[O-] | inconclusive: 19 µM [inhibitor, partial curve] | 
Cc1cc(C)c(-n2c(SCCS(=O)(=O)c3ccc(F)cc3)n[nH]c2=O)c(C)c1 |  | inactive: 3.41%
Oc1ccc(Cl)cc1N=Cc1sc2ccccc2c1Cl | inconclusive: 1.9 µM [inhibitor, partial curve] | 
O=C(CC(=O)c1ccccc1O)c1cccc(F)c1 | inconclusive: 15.1 µM [inhibitor, partial curve] | 
CNC(=O)c1ccsc1NC(=O)c1ccc(Cl)s1 | inconclusive: 12 µM [inhibitor, partial curve] | 
CCOCCCNC(=O)c1ccc(-n2c(-c3ccccc3)cc3c2CCC(C)C3)cc1 (configuration not stated) |  | inactive: 7.91%
Cn1c(=O)c2nc(-c3ccccc3)oc2c2ccccc21 | inconclusive: 13.5 µM [inhibitor, partial curve] | 
CC(=O)Nc1ccc(S(=O)(=O)c2ccnc3cc(Cl)ccc23)cc1 |  | inactive: -10.5%
CCn1c(/C=C/c2ccccc2)nc2ccccc2c1=O |  | inactive: -25.2%
Clc1ccc(-c2ccnc(-n3cccc3)n2)s1 | inconclusive: 19 µM [inhibitor, single point] | 

Structure (SMILES) | Potency | activity, negative = inhibition
CSc1nc(Oc2ccc(Cl)cc2)c2sccc2n1 |  | inactive: 3.01%
C/C(=N\NC(=O)c1cccc(S(=O)(=O)Nc2cccc(Cl)c2)c1)c1cccs1 | inconclusive: 19 µM [inhibitor, single point] | 
CCOC(=O)c1sc(NC(=O)c2ccccc2F)c(C(N)=O)c1C | inconclusive: 37.9 µM [inhibitor, single point] | 
S=C(NNc1ccc2ccccc2c1)NC1CCCCC1 | active: 6.75 µM | 
CC(/C=N/NC(=O)Cc1cccn1C)=C\c1ccco1 | inconclusive: 21.3 µM [inhibitor, single point] | 
Cc1c(NC(=O)Nc2cccs2)cccc1[N+](=O)[O-] | inconclusive: 21.3 µM [inhibitor, single point] | 
CC(C)Nc1ccc(-c2nc(-c3ccco3)no2)cc1[N+](=O)[O-] | active: 0.213 µM | 
Clc1nc2sccn2c1/C=N/n1cnc2ccccc21 | inconclusive: 10.7 µM [inhibitor, partial curve] | 
Cc1ccc(S(=O)(=O)c2nc(S(C)(=O)=O)sc2N2CCC(C)CC2)cc1 | inconclusive: 21.3 µM [inhibitor, single point] | 
COC(=O)c1c(NC(=O)/C=C/C(=O)O)sc(C)c1-c1ccc(C(C)C)cc1 | inconclusive: 26.9 µM [inhibitor, single point] | 
COc1ccccc1NC(=O)c1ncn(-c2ccccc2)n1 | active: 10.7 µM | 
Cn1cnnc1Sc1ccc(/C=C/C(=O)c2ccc(O)cc2)cc1[N+](=O)[O-] | inconclusive: 19 µM [inhibitor, partial curve] | 
Cc1noc(C(=O)Nc2cc(Cl)ccc2O)c1Cl | inconclusive: 19 µM [inhibitor, single point] | 
COc1cccc(C2=CC(c3cccs3)n3nnnc3N2)c1 (configuration not stated) |  | inactive: -29.4%
Fc1cccc(Cl)c1/C=N/Nc1ccccn1 | inconclusive: 1.69 µM [inhibitor, full curve, poor fit] | 
O=C(Nc1ccc2oc(-c3ccncc3)nc2c1)c1ccc([N+](=O)[O-])o1 | inconclusive: 37.9 µM [inhibitor, single point] | 
CCN(C(=O)Cn1nnc2sc(-c3ccccc3)cc2c1=O)c1cccc(C)c1 | active: 12 µM | 
CC(=O)N(/N=C1\Sc2ccccc2C1=O)c1ccccc1 | active: 0.301 µM | 
CSc1nc(Oc2ccc3ccccc3c2)c2sccc2n1 |  | inactive: -2.81%
CC(=NNC(=O)CSc1nc2ccccc2o1)c1ccco1 |  | inactive: 1.42%
CNc1ccc(Br)cc(C(=O)/C=C/c2cccc(OC)c2)c1=O | active: 8.49 µM | 
Cc1nnc(NC(=O)/C=C/c2ccco2)s1 | inconclusive: 23.9 µM [inhibitor, single point] | 
O=[N+]([O-])c1ccc(/C=N/N=C/c2ccc([N+](=O)[O-])o2)o1 |  | inactive: 3.61%
Cc1sc(NC(=S)NC(=O)c2ccco2)c(C(N)=O)c1C | active: 1.2 µM | 
FC(F)(F)c1cc(-c2cccs2)nc2cc(-c3cccs3)nn12 | inconclusive: 37.9 µM [inhibitor, single point] | 
O=C(/C=C/c1ccccc1Cl)Nc1nc(-c2cccs2)ns1 | active: 1.69 µM | 
